Measurements as given in PubChem BioAssay AID488969 (Vanderbilt High Throughput Screening Facility, 2010).
Whole data set: some 110,000 compounds, median “z-score” near -0.1, cut for the highest 2% near 2. This is one part of the list. The source made the active and inactive calls.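 Rule for the calls: active = z-score in the third read window above 3 or below -3; inactive = the rest.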

The molecules below were run against Metabotropic glutamate receptor 8 (Rattus norvegicus) (UniProt P70579) (assay: rat mGluR8 modulators via GIRK flux, primary screen, cell-based, thallium flux, HTS (AID 488969)). Settings: HEK293 rat mGluR8, GIRK (G protein-gated inwardly rectifying potassium channel) thallium flux, FluoZin2; at 10 µM; stronger effect = higher value; submaximal glutamate (EC20) added with thallium.
Sequence of UniProt P70579 (P70579 whole entry, looked up): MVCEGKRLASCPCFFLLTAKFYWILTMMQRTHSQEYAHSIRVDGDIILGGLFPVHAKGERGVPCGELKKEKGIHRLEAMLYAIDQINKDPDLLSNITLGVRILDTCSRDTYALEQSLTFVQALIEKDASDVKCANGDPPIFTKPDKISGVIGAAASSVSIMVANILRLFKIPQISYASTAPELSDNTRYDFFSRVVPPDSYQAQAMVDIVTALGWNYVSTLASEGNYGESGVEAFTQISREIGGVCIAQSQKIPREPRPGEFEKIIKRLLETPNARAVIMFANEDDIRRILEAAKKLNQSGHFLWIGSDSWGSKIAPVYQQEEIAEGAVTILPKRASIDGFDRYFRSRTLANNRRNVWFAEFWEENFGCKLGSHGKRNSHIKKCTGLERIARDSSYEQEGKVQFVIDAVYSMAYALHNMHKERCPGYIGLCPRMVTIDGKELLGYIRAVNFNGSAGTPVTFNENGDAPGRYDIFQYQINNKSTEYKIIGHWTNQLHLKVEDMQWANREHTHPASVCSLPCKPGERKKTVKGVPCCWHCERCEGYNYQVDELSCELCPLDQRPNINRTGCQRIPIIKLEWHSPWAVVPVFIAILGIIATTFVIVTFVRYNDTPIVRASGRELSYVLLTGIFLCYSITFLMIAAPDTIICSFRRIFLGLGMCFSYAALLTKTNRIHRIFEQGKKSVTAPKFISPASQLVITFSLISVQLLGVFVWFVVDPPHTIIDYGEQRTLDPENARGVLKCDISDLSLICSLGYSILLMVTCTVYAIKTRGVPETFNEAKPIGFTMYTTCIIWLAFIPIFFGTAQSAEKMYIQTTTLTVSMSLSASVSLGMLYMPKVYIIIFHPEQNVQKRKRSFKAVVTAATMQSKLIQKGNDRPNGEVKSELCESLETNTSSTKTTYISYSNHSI

| Compound | z-score |
| --- | --- |
| Cc1cc(C(C)c2ccccc2)c(O)c(CN2CCOCC2)c1C (centres undefined) | -0.258 |
| CC(NC(=O)c1ccccc1Cl)c1nnc(SCC(=O)Nc2ccc(C(=O)O)cc2)n1C (centres undefined) | 0.391 |
| CCc1nc(SCC(=O)Nc2nc3c(s2)CCCC3)c2ccccc2n1 | 0.0515 |
| CCC(C)[C@H](N)c1nnc(SCC(=O)c2ccc(Cl)cc2)o1 (some centres undefined) | -0.177 |
| O=c1cc(CO)oc(C(Nc2ccccn2)c2ccc(F)cc2)c1O (centres undefined) | -0.459 |
| O=C(NC1CCCc2ccccc21)c1cccc(S(=O)(=O)N2CCN(c3ccccc3)CC2)c1 (centres undefined) | 2.28 |
| CC(=O)/C=C/n1c(=S)oc2ccccc21 | 0.136 |
| Nc1nonc1-c1noc(-c2ccccc2)n1 | -0.0288 |
| O=C(CSc1ccc(C(F)(F)F)cc1[N+](=O)[O-])NCCOc1ccccc1 | 0.0226 |
| N#Cc1cn(-c2ccccc2)nc1C(=O)c1ccccc1 | -0.342 |
| CCC1(C)Cc2c(sc3c2c(=O)n(C)c2nnc(SCc4ccc5c(c4)OCO5)n32)CO1 (centres undefined) | active: 3.12 |
| O=c1[nH]c2c(n(C3CCCCC3)c1=O)CCC2 | -0.0408 |
| N#C/C=C1\n2c(nc3ccccc32)OC12CCCCC2 | 0.0617 |
| COC(=O)c1ccccc1NC(=O)C1CCN(C(=O)c2cc(OC)cc(OC)c2)CC1 | -0.592 |
| Cc1cccc(N2C(=O)CC(NNc3nc4ccccc4s3)C2=O)c1 (centres undefined) | -0.0684 |
| Cc1cc(C)nc(/N=C(\N)Nc2cccc([N+](=O)[O-])c2)n1 | -1.04 |
| COc1ccc(C2c3cc(OC)c(OC)cc3CCN2C2CC(=O)N(c3ccccc3)C2=O)cc1OC (centres undefined) | 0.062 |
| O=C(COc1ccc(Cl)cc1)NCc1nnc(SCC(=O)NCCc2ccccc2)o1 | -0.644 |
| CCOC(=O)c1cc(C)sc1NC(=S)Nc1ccccc1 | 0.88 |
| Cc1cc(C)n2nc(NCc3ccccc3)nc2n1 | -0.601 |
| Cn1c(=O)c2c(nc(SCC(=O)N(C3CCCCC3)C3CCCCC3)n2C)n(C)c1=O | -0.138 |
| O=[N+]([O-])c1cc(C(F)(F)F)cc([N+](=O)[O-])c1NCCCNc1ccc([N+](=O)[O-])c2cccnc12 | -0.0992 |

| Compound | z-score |
| --- | --- |
| O=C(O)C1CC=CCC1C(=O)Nc1cccc(C(=O)N2CCCCC2)c1 (centres undefined) | 0.0928 |
| COc1cc(C(C#N)N2CCOCC2)ccc1O (centres undefined) | 0.764 |
| CC(=O)Oc1ccc2c(C)cc(=O)[nH]c2c1 | 0.128 |
| COc1ccc(CCNC(C)=O)cc1 | -0.267 |
| CCCCS(=O)(=O)/C=C\C1C2C=CC(C2)C1S(=O)(=O)CCCC (centres undefined) | 1.17 |
| ClC(Cl)c1nnc(-c2ccccc2)c(-c2c[nH]c3ccccc23)n1 | -0.311 |
| Cc1ccc(NC(=S)NCC2CCCO2)cc1 (centres undefined) | 0.197 |
| CCN(CC)S(=O)(=O)c1ccc(C)c(C)c1 | -0.337 |
| CCc1ccccc1NC(=O)CCN1C(=O)c2ccccc2C1=O | -0.102 |
| CN(C(=O)CSC1=Nc2ccccc2C2=NC(c3ccccc3)C(=O)N12)C1CCCCC1 (centres undefined) | active: -3.76 |
| Cc1nn(C)cc1C(C(=O)NC1CCCCC1)N(C(=O)Cc1cccs1)c1ccc(F)cc1 (centres undefined) | 0.0114 |
| COc1ccc2cc(C(N)=O)/c(=N/NC(=O)c3ccco3)oc2c1 | -0.177 |
| Cc1ccc(NC(=O)c2ccc(CSc3ccccn3)cc2)cc1 | 0.482 |
| CCCNC(=O)c1ccccc1NC(=O)c1ccccc1N(C)S(=O)(=O)c1ccccc1 | -0.459 |
| COc1cc(C2CC(=O)c3cnc(NC(C)=O)nc3C2)cc(OC)c1OC (centres undefined) | -0.201 |
| CCn1c(=O)cc(OCC(=O)N2CCN(C(=O)c3ccco3)CC2)c2ccccc21 | -0.137 |
| CC1(C)C(=O)OC(C(=O)c2ccccc2)C(C)(C)C1=O (centres undefined) | -0.295 |
| COc1ccc(-c2c3c(nc4sc5c(=O)[nH]c(C)nc5c24)CCC3)cc1 | -0.26 |
| Cc1c(Cc2ccccc2)c(=O)oc2c(C)c(OCC(=O)Nc3ccc(C#N)cc3)ccc12 | -0.0772 |
| O=C(COc1ccccc1C(=O)c1cnn(-c2ccccc2)c1)Nc1ccccc1 | -0.24 |
| COC(=O)c1ccc(CSc2nc3c(cnn3-c3ccc(C)cc3)c(=O)[nH]2)o1 | -0.0231 |
| COc1ccccc1NC(=S)N1CCC(c2nc3ccccc3o2)CC1 | -0.331 |

| Compound | z-score |
| --- | --- |
| COC(=O)c1ccc(-c2ccc(/C=N/N3C(=O)C4C5C=CC(C6CC56)C4C3=O)o2)cc1 (centres undefined) | -0.269 |
| O=[N+]([O-])c1ccc(OCc2cccc(COc3ccc([N+](=O)[O-])cc3)n2)cc1 | 0.233 |
| CCCCN1C2=NCCCN2c2cc(C)c(C)cc21 | 1.11 |
| COc1ccc(OC)c(NC(=O)CCC(=O)Nc2nnc(C(F)(F)F)s2)c1 | 0.644 |
| Cn1cnnc1SCC(=O)NCCc1ccccc1 | 0.161 |
| CCCC1CCc2c(sc(N)c2C(N)=O)C1 (centres undefined) | -0.21 |
| Cc1ccc(CN(Cc2ccc(C)o2)C(=S)NCC(=O)O)cc1 | -0.00212 |
| O=C(CCN1CCc2ccccc21)c1ccc2c(c1)OCCO2 | -0.0938 |
| CC(NC(=O)c1ccc(F)cc1)c1ccccc1 (centres undefined) | -0.251 |
| CCOC(=O)c1c(CN2CCN(CCO)CC2)n(C)c2cc(Br)c(OC)cc12 | 0.864 |
| CC(Oc1ccc2oc(-c3ccccc3)c(C(=O)O)c2c1)C(=O)O (centres undefined) | 0.411 |
| COc1ccc(-c2c(C)nn(-c3ccccc3)c2N)cc1 | -0.173 |
| COc1ccc(C(=O)N/C(=C\c2ccccc2)C(=O)NC(CCSC)C(=O)O)cc1 (centres undefined) | -0.0411 |
| CCc1nnc(NC(=O)CCN(c2cc(C)cc(C)c2)S(=O)(=O)c2ccc(Cl)cc2)s1 | -0.0322 |
| CS(=O)(=O)N(CCc1ccccc1)CC(=O)NCC1CCCO1 (centres undefined) | -0.312 |
| CCCc1nnc2c(N(C)S(=O)(=O)c3ccccc3)nc3ccccc3n12 | -0.163 |
| CC1CCN(C(=O)/C=C/c2ccc(C(C)(C)C)cc2)CC1 | -0.493 |
| Cc1ccc(N=CC2=C(O)CC(c3ccco3)CC2=O)cc1 (centres undefined) | -0.179 |
| O=C1N=C(N2CCN(c3ccccc3)CC2)S/C1=C\c1cn[nH]c1-c1ccccc1 | -0.34 |
| CCNC(=O)Nn1c(-c2ccccc2)nc2ccccc2c1=O | 0.247 |
| O=C(COC(=O)[C@H](Cc1ccccc1)NC(=O)c1cccs1)Nc1c(Cl)cccc1Cl | -0.462 |
| C=CCNC(=O)c1ccccc1NC(=O)Cc1ccccc1[N+](=O)[O-] | -0.473 |

| Compound | z-score |
| --- | --- |
| O=C(O)CCCNS(=O)(=O)c1cccs1 | 0.143 |
| Cc1nc(SCC(=O)NCc2ccc3c(c2)OCO3)c(C#N)c2c1CCCC2 | -0.601 |
| CCOCCSc1nc2c(c(=O)[nH]c(=O)n2C)n1CCCc1ccccc1 | -0.352 |
| Cc1ccc(-c2nc3ccccc3c(=O)n2CCCn2ccnc2)cc1 | 0.126 |
| COC(=O)Cc1c(C)nc2nc(Cc3ccccc3)[nH]n2c1=O | -1.79 |
| O=C(c1ccc2nc(N3CCOCC3)sc2c1)N1CCC(Cc2ccccc2)CC1 | -0.938 |
| Cn1nnnc1SCC(=O)NC(C)(C)C | 1.31 |
| COc1c(Cl)cc(Cl)cc1C(=O)Nc1ccccc1N1CCN(C(C)=O)CC1 | -0.00567 |
| O=C1CSC(c2cn(-c3ccccc3)nc2-c2cccs2)N1CC1CCCO1 (centres undefined) | -0.387 |
| CC1(C)CC(=O)C(C=Nc2ccccc2C(=O)O)=C(O)C1 | 0.324 |
| CCCCc1nc(NCc2ccccc2)c(C#N)c2c1CCCC2 | -0.231 |
| COC(=O)CCC(=O)Nc1nnc(C(F)(F)F)s1 | -0.0801 |
| O=C(c1cc2c(s1)-c1ccccc1OC2)N1CCN(c2ccccc2)CC1 | 0.106 |
| CN(CCOC(=O)/C=C/c1ccccc1)C(C)(C)C | 0.0413 |
| S=C(Nc1ccc(Cl)cc1)N1CCCCC1 | -0.262 |
| Cc1ccc(OCCCSc2ncccn2)cc1C | -0.106 |
| O=C(COC(=O)C1CC2C=CC1C2)Nc1ccc2c(c1)OC(F)(F)O2 (centres undefined) | active: 4.04 |
| O=C(Nc1ccc(Cl)c(Cl)c1)OCc1cccnc1 | -0.347 |
| CCCN(CCC)C(=O)NC1CC(=O)N(c2ccc(OC)cc2)C1 (centres undefined) | 0.107 |
| O=C(NCCc1ccc(Cl)cc1)C1CCCN(S(=O)(=O)c2cnc[nH]2)C1 (centres undefined) | 0.0211 |
| COc1ccc(CCNC(=O)NC2CCCCC2)cc1 | -0.00915 |
| Cc1ccc(C(=O)/C=C/c2cn(CN3CCN(C)CC3)c3ccccc23)cc1 | 0.255 |

| Compound | z-score |
| --- | --- |
| COc1ccccc1CNC(=O)CN1CCC(NC(=O)c2ccccc2F)CC1 | 0.265 |
| COCCNC(=O)C1CCC(Cn2c(=S)[nH]c3ccccc3c2=O)CC1 (centres undefined) | 0.464 |
| COc1ccc(CCN2C(=O)CC(NNC(=O)c3ccccc3Br)C2=O)cc1 (centres undefined) | -0.244 |
| O=C(Nc1cccnc1)c1sc(Nc2ccccc2)nc1-c1ccccc1 | -0.378 |
| Cc1c(NC(=O)C(C)Sc2n[nH]c(N)n2)c(=O)n(-c2ccccc2)n1C (centres undefined) | 0.933 |
| Cc1cc(C)n(-c2nc(C)nc(NCc3ccccc3)n2)n1 | -0.403 |
| O=C(NCn1ccc(=O)[nH]c1=S)c1ccccc1 | -0.0301 |
| CC(c1ccccc1)n1cc(C(=O)NCC2COc3ccccc3O2)nn1 (centres undefined) | 0.0508 |
| CCOc1ccc2[nH]c(=O)c(=O)[nH]c2c1 | 0.191 |
| O=C(Nc1ccc(Cl)cc1)N1CCN(c2ccccc2)CC1 | -0.94 |
| Cc1cccc(C)c1NC(=S)N/N=C/c1ccc(OCCC(C)C)cc1 | 0.00798 |
| O=C(NCc1ccc2c(c1)OCO2)C1CCCN(S(=O)(=O)c2cccc3nonc23)C1 (centres undefined) | 0.401 |
| COc1ccccc1-c1n[nH]c2c1[C@H](C)CC[C@H]2C(C)C | -0.485 |
| O=S1(=O)N=C(N2CCCc3ccccc32)c2ccccc21 | -0.336 |
| COc1ccc(/C=N/Nc2c(Cl)cc(Cl)cc2Cl)cc1CN1CCOCC1 | 0.343 |
| O=C(COc1ccccc1)NCC(=O)Nc1ccc(S(=O)(=O)NCc2ccco2)cc1 | -0.311 |
| O=C1[C@@H]2C(Cc3ccc(O)cc3)NC3(C(=O)Nc4ccc(F)cc43)[C@@H]2C(=O)N1c1ccc(F)cc1 (some centres undefined) | 1.2 |
| CCC(C)(C)NC(=O)CN(Cc1cccs1)C(=O)C(=O)Nc1ccc2c(c1)OCCO2 | -0.0844 |
| CC(C)[C@H](NC(=O)c1ccc(Cl)c([N+](=O)[O-])c1)C(=O)NCc1ccc(F)cc1 | 0.57 |
| CCOC(=O)C1CCN(S(=O)(=O)c2cccc(-c3cn4cc(C)ccc4n3)c2)CC1 | -0.0133 |
| CCOC(=O)C1=C(C)Nc2nc(SCC)[nH]c(=O)c2C1c1ccncc1 (centres undefined) | 0.799 |
